# The other results are listed elsewhere or left out.
# B1: LKPARMA (Neurospora crassa) (protein)
# chain: MSFHVTAEDARRIEVRDNRTILFARLRREDGEWNDASYELDQIIGNNDGHFQWGGGQNFTETAEDIRFHPKEGAAEQPILRARLRDCNGEFHDRDVNLTEIVENVNGEFQAKF
# What was measured:
# Assay in all cases: glycan array binding signal (z-score within array); higher = stronger binding
# Conditions in all cases: glycan notation: IUPAC condensed, linker removed
# Gal(a1-4)Gal(b1-4)Glc = biological target: Gal(a1-4)Gal(b1-4)Glc
# Outline: (§1)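 Negative Z-scores can be read as non-binding. The Z-score is calculated within each array and then averaged across arrays of one protein sequence at different concentrations or buffers and across linkers. Arrays, 3228 in all, were curated from the Consortium for Functional Glycomics database and kept only where the protein sequence was available.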
# Gal(a1-4)Gal(b1-4)GlcNAc = biological target: Gal(a1-4)Gal(b1-4)GlcNAc
# Outline: as §1
# Gal(a1-4)GlcNAc = biological target: Gal(a1-4)GlcNAc
# Outline: as §1
# Gal(a1-6)Glc = biological target: Gal(a1-6)Glc
# Outline: as §1
# Gal(b1-2)Gal = biological target: Gal(b1-2)Gal
# Outline: as §1
# Gal(b1-3)Gal = biological target: Gal(b1-3)Gal
# Outline: as §1
# Gal(b1-3)GalNAc = biological target: Gal(b1-3)GalNAc
# Outline: as §1
# [1] = biological target: Gal(b1-3)GalNAc(b1-3)Gal(a1-4)Gal(b1-4)Glc
# Outline: as §1
# [2] = biological target: Gal(b1-3)GalNAc(b1-4)Gal(b1-4)Glc
# Outline: as §1
# [3] = biological target: Gal(b1-3)GalNAc(b1-4)[Neu5Ac(a2-3)]Gal(b1-4)Glc
# Outline: as §1
# Gal(b1-3)GlcNAc = biological target: Gal(b1-3)GlcNAc
# Outline: as §1
# [4] = biological target: Gal(b1-3)GlcNAc(b1-3)Gal(b1-4)Glc
# Outline: as §1
# [5] = biological target: Gal(b1-3)GlcNAc(b1-3)Gal(b1-4)GlcNAc
# Outline: as §1
# [6] = biological target: Gal(b1-3)[Fuc(a1-4)]GlcNAc
# Outline: as §1
# [7] = biological target: Gal(b1-3)[Fuc(a1-4)]GlcNAc(b1-3)Gal(b1-4)GlcNAc
# Outline: as §1
# [8] = biological target: Gal(b1-3)[Fuc(a1-4)]GlcNAc(b1-3)Gal(b1-4)[Fuc(a1-3)]GlcNAc
# Outline: as §1
# [9] = biological target: Gal(b1-3)[GlcNAc(b1-6)]GalNAc
# Outline: as §1
# [10] = biological target: Gal(b1-3)[Neu5Ac(a2-6)]GalNAc
# Outline: as §1
# [11] = biological target: Gal(b1-3)[Neu5Ac(a2-6)]GlcNAc(b1-6)Gal(b1-4)Glc
# Outline: as §1
# [12] = biological target: Gal(b1-3)[Neu5Ac(b2-6)]GalNAc
# Outline: as §1
# [13] = biological target: Gal(b1-4)GalNAc(a1-3)[Fuc(a1-2)]Gal(b1-4)GlcNAc
# Outline: as §1
# [14] = biological target: Gal(b1-4)GalNAc(b1-3)[Fuc(a1-2)]Gal(b1-4)GlcNAc
# Outline: as §1
# Gal(b1-4)Glc = biological target: Gal(b1-4)Glc
# Outline: as §1
# Gal(b1-4)Glc6S = biological target: Gal(b1-4)Glc6S
# Outline: as §1
# Gal(b1-4)GlcNAc = biological target: Gal(b1-4)GlcNAc
# Outline: as §1
# [15] = biological target: Gal(b1-4)GlcNAc(b1-2)Man(a1-3)[Gal(b1-4)GlcNAc(b1-2)Man(a1-6)]Man(b1-4)GlcNAc(b1-4)GlcNAc
# Outline: as §1
# [16] = biological target: Gal(b1-4)GlcNAc(b1-3)Gal(b1-4)Glc
# Outline: as §1
# [17] = biological target: Gal(b1-4)GlcNAc(b1-3)Gal(b1-4)GlcNAc
# Outline: as §1
# [18] = biological target: Gal(b1-4)GlcNAc(b1-3)Gal(b1-4)GlcNAc(b1-3)Gal(b1-4)GlcNAc
# Outline: as §1
# [19] = biological target: Gal(b1-4)GlcNAc(b1-3)Gal(b1-4)[Fuc(a1-3)]GlcNAc(b1-3)Gal(b1-4)[Fuc(a1-3)]GlcNAc
# Outline: as §1
# [20] = biological target: Gal(b1-4)GlcNAc(b1-3)GalNAc
# Outline: as §1
# [21] = biological target: Gal(b1-4)GlcNAc(b1-3)[Gal(b1-4)GlcNAc(b1-6)]GalNAc
# Outline: as §1
# [22] = biological target: Gal(b1-4)GlcNAc(b1-6)Gal(b1-4)GlcNAc(b1-6)GalNAc
# Outline: as §1
# [23] = biological target: Gal(b1-4)GlcNAc(b1-6)GalNAc
# Outline: as §1
# [24] = biological target: Gal(b1-4)GlcNAc(b1-6)[Gal(b1-3)]GalNAc
# Outline: as §1
# Gal3S(b1-3)GalNAc = biological target: Gal3S(b1-3)GalNAc
# Outline: as §1
# Gal3S(b1-3)GlcNAc = biological target: Gal3S(b1-3)GlcNAc
# Outline: as §1
# [25] = biological target: Gal3S(b1-3)[Fuc(a1-4)]GlcNAc
# Outline: as §1
# Gal3S(b1-4)Glc = biological target: Gal3S(b1-4)Glc
# Outline: as §1
# Gal3S(b1-4)Glc6S = biological target: Gal3S(b1-4)Glc6S
# Outline: as §1
# Gal3S(b1-4)GlcNAc = biological target: Gal3S(b1-4)GlcNAc
# Outline: as §1
# Gal3S(b1-4)GlcNAc6S = biological target: Gal3S(b1-4)GlcNAc6S
# Outline: as §1
# Gal3S6S(b1-4)GlcNAc = biological target: Gal3S6S(b1-4)GlcNAc
# Outline: as §1
# Gal3S6S(b1-4)GlcNAc6S = biological target: Gal3S6S(b1-4)GlcNAc6S
# Outline: as §1
# Gal4S(b1-4)GlcNAc = biological target: Gal4S(b1-4)GlcNAc
# Outline: as §1
binder,measurement,setting,value
B1,glycan array binding signal (z-score),Gal(a1-4)Gal(b1-4)Glc,0.2
same,glycan array binding signal (z-score),Gal(a1-4)Gal(b1-4)GlcNAc,0.317
same,glycan array binding signal (z-score),Gal(a1-4)GlcNAc,-0.229
same,glycan array binding signal (z-score),Gal(a1-6)Glc,2.85
same,glycan array binding signal (z-score),Gal(b1-2)Gal,-0.251
same,glycan array binding signal (z-score),Gal(b1-3)Gal,-0.246
same,glycan array binding signal (z-score),Gal(b1-3)GalNAc,-0.251
same,glycan array binding signal (z-score),[1],0.128
same,glycan array binding signal (z-score),[2],-0.25
same,glycan array binding signal (z-score),[3],-0.25
same,glycan array binding signal (z-score),Gal(b1-3)GlcNAc,-0.249
same,glycan array binding signal (z-score),[4],4.93
same,glycan array binding signal (z-score),[5],-0.249
same,glycan array binding signal (z-score),[6],-0.251
same,glycan array binding signal (z-score),[7],-0.246
same,glycan array binding signal (z-score),[8],-0.249
same,glycan array binding signal (z-score),[9],-0.251
same,glycan array binding signal (z-score),[10],-0.234
same,glycan array binding signal (z-score),[11],5.09
same,glycan array binding signal (z-score),[12],-0.251
same,glycan array binding signal (z-score),[13],-0.149
same,glycan array binding signal (z-score),[14],-0.246
same,glycan array binding signal (z-score),Gal(b1-4)Glc,-0.222
same,glycan array binding signal (z-score),Gal(b1-4)Glc6S,-0.25
same,glycan array binding signal (z-score),Gal(b1-4)GlcNAc,-0.252
same,glycan array binding signal (z-score),[15],-0.245
same,glycan array binding signal (z-score),[16],1.9
same,glycan array binding signal (z-score),[17],-0.252
same,glycan array binding signal (z-score),[18],-0.252
same,glycan array binding signal (z-score),[19],-0.087
same,glycan array binding signal (z-score),[20],-0.249
same,glycan array binding signal (z-score),[21],-0.252
same,glycan array binding signal (z-score),[22],-0.252
same,glycan array binding signal (z-score),[23],-0.25
same,glycan array binding signal (z-score),[24],-0.252
same,glycan array binding signal (z-score),Gal3S(b1-3)GalNAc,-0.25
same,glycan array binding signal (z-score),Gal3S(b1-3)GlcNAc,-0.247
same,glycan array binding signal (z-score),[25],-0.196
same,glycan array binding signal (z-score),Gal3S(b1-4)Glc,-0.23
same,glycan array binding signal (z-score),Gal3S(b1-4)Glc6S,-0.135
same,glycan array binding signal (z-score),Gal3S(b1-4)GlcNAc,-0.251
same,glycan array binding signal (z-score),Gal3S(b1-4)GlcNAc6S,-0.25
same,glycan array binding signal (z-score),Gal3S6S(b1-4)GlcNAc,0.049
same,glycan array binding signal (z-score),Gal3S6S(b1-4)GlcNAc6S,-0.189
same,glycan array binding signal (z-score),Gal4S(b1-4)GlcNAc,-0.249
